Measurements as given in the supplement of paper PMC12423691.
Some of the results follow. Binding of human transcription factors and regulators to the viral nucleoprotein by AlphaScreen, crude cell-free proteins, amounts not normalised, one pass. Fold of the Venus control; higher = more signal. No active / inactive call. Single-pass screen; sequences are the whole Swiss-Prot entries looked up by name.

B1: ZBTB7B, O15156 (protein)
chain: MGSPEDDLIGIPFPDHSSELLSCLNEQRQLGHLCDLTIRTQGLEYRTHRAVLAACSHYFKKLFTEGGGGAVMGAGGSGTATGGAGAGVCELDFVGPEALGALLEFAYTATLTTSSANMPAVLQAARLLEIPCVIAACMEILQGSGLEAPSPDEDDCERARQYLEAFATATASGVPNGEDSPPQVPLPPPPPPPPRPVARRSRKPRKAFLQTKGARANHLVPEVPTVPAHPLTYEEEEVAGRVGSSGGSGPGDSYSPPTGTASPPEGPQSYEPYEGEEEEEELVYPPAYGLAQGGGPPLSPEELGSDEDAIDPDLMAYLSSLHQDNLAPGLDSQDKLVRKRRSQMPQECPVCHKIIHGAGKLPRHMRTHTGEKPFACEVCGVRFTRNDKLKIHMRKHTGERPYSCPHCPARFLHSYDLKNHMHLHTGDRPYECHLCHKAFAKEDHLQRHLKGQNCLEVRTRRRRKDDAPPHYPPPSTAAASPAGLDLSNGHLDTFRLSLARFWEQSAPTGPPVSTPGPPDDDEEEGAPTTPQAEGAMESS
B2: PTGER3, P43115 (protein)
chain: MKETRGYGGDAPFCTRLNHSYTGMWAPERSAEARGNLTRPPGSGEDCGSVSVAFPITMLLTGFVGNALAMLLVSRSYRRRESKRKKSFLLCIGWLALTDLVGQLLTTPVVIVVYLSKQRWEHIDPSGRLCTFFGLTMTVFGLSSLFIASAMAVERALAIRAPHWYASHMKTRATRAVLLGVWLAVLAFALLPVLGVGQYTVQWPGTWCFISTGRGGNGTSSSHNWGNLFFASAFAFLGLLALTVTFSCNLATIKALVSRCRAKATASQSSAQWGRITTETAIQLMGIMCVLSVCWSPLLIMMLKMIFNQTSVEHCKTHTEKQKECNFFLIAVRLASLNQILDPWVYLLLRKILLRKFCQIRYHTNNYASSSTSLPCQCSSTLMWSDHLER
B3: ZNF30, P17039 (protein)
chain: MAHKYVGLQYHGSVTFEDVAIAFSQQEWESLDSSQRGLYRDVMLENYRNLVSMGHSRSKPHVIALLEQWKEPEVTVRKDGRRWCTDLQLEDDTIGCKEMPTSENCPSFALHQKISRQKPRECQEYGKTLCQDSKPVQHERIHSSEKPNRCKECGKNFSNGHQLTIHQRLHVGEKPYKYEKCGKAFISGSAFVKHGRIHTGEKPLKCKQCGKTISGSYQLTVHKSIHTGKKPYECGECGKAFLVYGKLTRHQSTHTGEKPFGCEECGKAFSTFSYLVQHQRIHTSEKPYECKECGKAFSTSSPLAKHQRIHTGEKPYECKECGKSFTVYGQLTRHQSIHTGEKPFECKECGKAFRLSSFLHAHQRIHAEIKPYGCKECGRTFSRASYLVQHGRLHTGEKPYECKECGKAFSTGSYLVQHQRIHTGEKPYECKECGKAFISRHQLTVHQRVHTGEKPYECKECGKAFRVHVHLTQHRKIHTDVKPYECKECGKTFSRASYLVQHSRIHTGKKPYECKECGKAFSSGSYLVQHQRIHTGEKPYECNKCGKAFTVYGQLIGHQSVHTGEKPFECKECGKAFRLNSFLTEHQRVHTGEKPFKCKKCGKTFRYSSALKVHLRKHMSVIP
B4: ZNF12, P17014 (protein)
chain: MNKSLGPVSFKDVAVDFTQEEWQQLDPEQKITYRDVMLENYSNLVSVGYHIIKPDVISKLEQGEEPWIVEGEFLLQSYPDEVWQTDDLIERIQEEENKPSRQTVFIETLIEERGNVPGKTFDVETNPVPSRKIAYKNSLCDSCEKCLTSVSEYISSDGSYARMKADECSGCGKSLLHIKLEKTHPGDQAYEFNQNGEPYTLNEESLYQKIRILEKPFEYIECQKAFQKDTVFVNHMEEKPYKWNGSEIAFLQMSDLTVHQTSHMEMKPYECSECGKSFCKKSKFIIHQRTHTGEKPYECNQCGKSFCQKGTLTVHQRTHTGEKPYECNECGKNFYQKLHLIQHQRTHSGEKPYECSYCGKSFCQKTHLTQHQRTHSGERPYVCHDCGKTFSQKSALNDHQKIHTGVKLYKCSECGKCFCRKSTLTTHLRTHTGEKPYECNECGKFFSRLSYLTVHYRTHSGEKPYECNECGKTFYLNSALMRHQRVHTGEKPYECNECGKLFSQLSYLTIHHRTHSGVKPYECSECGKTFYQNSALCRHRRIHKGEKPYECYICGKFFSQMSYLTIHHRIHSGEKPYECSECGKTFCQNSALNRHQRTHTGEKAYECYECGKCFSQMSYLTIHHRIHSGEKPFECNECGKAFSRMSYLTVHYRTHSGEKPYECTECGKKFYHKSAFNSHQRIHRRGNMNVIDVGRLL
B5: FOXD4, Q12950 (protein)
chain: MNLPRAERLRSTPQRSLRDSDGEDGKIDVLGEEEDEDEEEAASQQFLEQSLQPGLQVARWGGVALPREHIEGGGGPSDPSEFGTEFRAPPRSAAASEDARQPAKPPSSYIALITMAILQSPHKRLTLSGICAFISDRFPYYRRKFPAWQNSIRHNLSLNDCFVKIPREPGRPGKGNYWSLDPASQDMFDNGSFLRRRKRFQRHQPTPGAHLPHPFPLPAAHAALHNPRPGPLLGAPAPPQPVPGAYPNTGPGRRPYALLHPHPPRYLLLSAPAYAGAPKKAEGADLATPAPFPCCSPHLVLSLGRRARVWRRHREADASLSALRVSCKGSGERVQGLRRVCPRPRGATAPCSSDRQACRTILQQQQRHQEEDCANGCAPTKGAVLGGHLSAASALLRYQAVAEGSGLTSLAAPLGGEGTSPVFLVSPTPSSLAESAGPS
B6: TAF12, Q16514 (protein)
chain: MNQFGPSALINLSNFSSIKPEPASTPPQGSMANSTAVVKIPGTPGAGGRLSPENNQVLTKKKLQDLVREVDPNEQLDEDVEEMLLQIADDFIESVVTAACQLARHRKSSTLEVKDVQLHLERQWNMWIPGFGSEEIRPYKKACTTEAHKQRMALIRKTTKK
B7: SIGIRR, Q6IA17 (protein)
chain: MPGVCDRAPDFLSPSEDQVLRPALGSSVALNCTAWVVSGPHCSLPSVQWLKDGLPLGIGGHYSLHEYSWVKANLSEVLVSSVLGVNVTSTEVYGAFTCSIQNISFSSFTLQRAGPTSHVAAVLASLLVLLALLLAALLYVKCRLNVLLWYQDAYGEVEINDGKLYDAYVSYSDCPEDRKFVNFILKPQLERRRGYKLFLDDRDLLPRAEPSADLLVNLSRCRRLIVVLSDAFLSRAWCSHSFREGLCRLLELTRRPIFITFEGQRRDPAHPALRLLRQHRHLVTLLLWRPGSVTPSSDFWKEVQLALPRKVQYRPVEGDPQTQLQDDKDPMLILRGRVPEGRALDSEVDPDPEGDLGVRGPVFGEPSAPPHTSGVSLGESRSSEVDVSDLGSRNYSARTDFYCLVSKDDM

Target: nucleoprotein N of Crimean-Congo hemorrhagic fever virus
Assay: AlphaScreen luminescence signal relative to Venus negative control (fold); higher = stronger binding to CCHFV N
Method: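 AlphaScreen binding of cell-free made, FLAG-GST-tagged human transcription factors and regulators (crude translation products) to biotinylated N protein; signal as fold of the FLAG-GST-Venus control. One pass.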

Binder | AlphaScreen luminescence signal
B1 | 18.5
B2 | 9.58
B3 | 2.56
B4 | 2.74
B5 | 2.09
B6 | 1.81
B7 | 2.47
